Where “and” joins values, the source holds several entries; their conditions need not be identical. Equal values may be shown once. Inconclusive results, whose numbers are uncertain, are shown with a selection of clear calls. For part of these data: Where the call is inconclusive, the potency comes from a doubtful curve fit. For part of these data: A note “side channel” means that the fit belongs to a control or component signal, not to the main read-out. Calls of active or inactive are those of the source. Unless noted, calls follow the shape of the dose curve; as a rule, active = well fitted curve in the direction sought with a large enough effect; inconclusive = small, poorly fitted or top-dose-only effect, or another doubt; inactive = no such curve, though single readings can be large; an effect the other way counts as inactive or inconclusive.
Assays:
[1] = molecular target: Chromobox protein homolog 1 (Homo sapiens) (UniProt P83916); experiment: qHTS Validation Assay for Inhibitors of HP1-beta Chromodomain Interactions with Methylated Histone Tails (AID 488953); also: nearly all actives have a fitted effect of over 50% in size
Sequence of UniProt P83916 (P83916 whole entry, looked up): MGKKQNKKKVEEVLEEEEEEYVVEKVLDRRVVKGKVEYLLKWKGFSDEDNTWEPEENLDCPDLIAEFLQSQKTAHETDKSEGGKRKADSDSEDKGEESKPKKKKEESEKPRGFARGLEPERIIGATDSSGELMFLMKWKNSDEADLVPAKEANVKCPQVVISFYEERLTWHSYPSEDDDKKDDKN
How it was run: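 AlphaScreen proximity readout: streptavidin donor and Ni-chelate acceptor beads, 10 ug/mL final, 30 min dark, RT. Complex of 50 nM HP1-beta and 50 nM b-H3(1-18)K9me3 formed 30 min, then compound-treated 30 min; PBS pH 7.4/0.01% Tween-20.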

[2] = Validation screen for small molecules that induce genotoxicity in human embryonic kidney (HEK293T) cells expressing luciferase-tagged ELG1 (AID 493106)
How it was run: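 qHTS format; 2,000 HEK293T ELG1-luc cells/well; 23 nL compound via pin tool; 16 hr, 37 °C/5% CO2; ONE-Glo, 30 min RT; luminescence read.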

[3] = molecular target: ATP-dependent 6-phosphofructokinase (Trypanosoma brucei brucei) (UniProt O15648); experiment: qHTS Assay to Find Inhibitors of T. brucei phosphofructokinase: hit validation (AID 492961)
Sequence of UniProt O15648 (O15648 whole entry, looked up): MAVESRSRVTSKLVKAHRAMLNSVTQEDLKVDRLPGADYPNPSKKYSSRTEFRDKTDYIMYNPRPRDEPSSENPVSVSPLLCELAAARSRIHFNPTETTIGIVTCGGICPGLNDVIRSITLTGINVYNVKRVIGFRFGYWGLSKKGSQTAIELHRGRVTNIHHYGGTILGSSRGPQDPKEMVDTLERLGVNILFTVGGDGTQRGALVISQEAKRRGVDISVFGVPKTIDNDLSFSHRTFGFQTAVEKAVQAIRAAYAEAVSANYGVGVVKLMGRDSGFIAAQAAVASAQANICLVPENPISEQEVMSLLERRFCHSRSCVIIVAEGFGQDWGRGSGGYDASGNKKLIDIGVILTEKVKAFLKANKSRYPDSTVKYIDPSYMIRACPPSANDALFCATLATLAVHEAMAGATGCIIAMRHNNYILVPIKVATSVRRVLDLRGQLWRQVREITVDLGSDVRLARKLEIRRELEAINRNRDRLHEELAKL
How it was run: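 Inhibition of parasite PFK is measured as reduced ADP formation, quantified via luciferase after ATP depletion. Assay used 0.1 mM ATP, 0.5 mM F6P, 1.25 nM enzyme, 45 min incubation.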

[4] = molecular target: ATPase family AAA domain-containing protein 5 (Homo sapiens) (UniProt Q96QE3); experiment: Validation screen for small molecules that inhibit ELG1-dependent DNA repair in human embryonic kidney (HEK293T) cells expressing luciferase-tagged ELG1 (AID 493107); conditions: HEK293T ELG1-luciferase level, luminescence, 5-fluorouridine co-treatment, 16 h; activity change, negative = decrease: at 46.1 µM (top of the series); also: nearly all actives have a fitted effect of over 70% in size;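 as to activity change, negative = decrease: cells co-treated with the DNA-damaging agent 5-fluorouridine alongside compound; % is scaled to controls: 0 for no effect and ±100 for the full control effect; inhibitors lower the ELG1-luciferase luminescence signal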
Sequence of UniProt Q96QE3 (Q96QE3 whole entry, looked up, the tested form may be a part): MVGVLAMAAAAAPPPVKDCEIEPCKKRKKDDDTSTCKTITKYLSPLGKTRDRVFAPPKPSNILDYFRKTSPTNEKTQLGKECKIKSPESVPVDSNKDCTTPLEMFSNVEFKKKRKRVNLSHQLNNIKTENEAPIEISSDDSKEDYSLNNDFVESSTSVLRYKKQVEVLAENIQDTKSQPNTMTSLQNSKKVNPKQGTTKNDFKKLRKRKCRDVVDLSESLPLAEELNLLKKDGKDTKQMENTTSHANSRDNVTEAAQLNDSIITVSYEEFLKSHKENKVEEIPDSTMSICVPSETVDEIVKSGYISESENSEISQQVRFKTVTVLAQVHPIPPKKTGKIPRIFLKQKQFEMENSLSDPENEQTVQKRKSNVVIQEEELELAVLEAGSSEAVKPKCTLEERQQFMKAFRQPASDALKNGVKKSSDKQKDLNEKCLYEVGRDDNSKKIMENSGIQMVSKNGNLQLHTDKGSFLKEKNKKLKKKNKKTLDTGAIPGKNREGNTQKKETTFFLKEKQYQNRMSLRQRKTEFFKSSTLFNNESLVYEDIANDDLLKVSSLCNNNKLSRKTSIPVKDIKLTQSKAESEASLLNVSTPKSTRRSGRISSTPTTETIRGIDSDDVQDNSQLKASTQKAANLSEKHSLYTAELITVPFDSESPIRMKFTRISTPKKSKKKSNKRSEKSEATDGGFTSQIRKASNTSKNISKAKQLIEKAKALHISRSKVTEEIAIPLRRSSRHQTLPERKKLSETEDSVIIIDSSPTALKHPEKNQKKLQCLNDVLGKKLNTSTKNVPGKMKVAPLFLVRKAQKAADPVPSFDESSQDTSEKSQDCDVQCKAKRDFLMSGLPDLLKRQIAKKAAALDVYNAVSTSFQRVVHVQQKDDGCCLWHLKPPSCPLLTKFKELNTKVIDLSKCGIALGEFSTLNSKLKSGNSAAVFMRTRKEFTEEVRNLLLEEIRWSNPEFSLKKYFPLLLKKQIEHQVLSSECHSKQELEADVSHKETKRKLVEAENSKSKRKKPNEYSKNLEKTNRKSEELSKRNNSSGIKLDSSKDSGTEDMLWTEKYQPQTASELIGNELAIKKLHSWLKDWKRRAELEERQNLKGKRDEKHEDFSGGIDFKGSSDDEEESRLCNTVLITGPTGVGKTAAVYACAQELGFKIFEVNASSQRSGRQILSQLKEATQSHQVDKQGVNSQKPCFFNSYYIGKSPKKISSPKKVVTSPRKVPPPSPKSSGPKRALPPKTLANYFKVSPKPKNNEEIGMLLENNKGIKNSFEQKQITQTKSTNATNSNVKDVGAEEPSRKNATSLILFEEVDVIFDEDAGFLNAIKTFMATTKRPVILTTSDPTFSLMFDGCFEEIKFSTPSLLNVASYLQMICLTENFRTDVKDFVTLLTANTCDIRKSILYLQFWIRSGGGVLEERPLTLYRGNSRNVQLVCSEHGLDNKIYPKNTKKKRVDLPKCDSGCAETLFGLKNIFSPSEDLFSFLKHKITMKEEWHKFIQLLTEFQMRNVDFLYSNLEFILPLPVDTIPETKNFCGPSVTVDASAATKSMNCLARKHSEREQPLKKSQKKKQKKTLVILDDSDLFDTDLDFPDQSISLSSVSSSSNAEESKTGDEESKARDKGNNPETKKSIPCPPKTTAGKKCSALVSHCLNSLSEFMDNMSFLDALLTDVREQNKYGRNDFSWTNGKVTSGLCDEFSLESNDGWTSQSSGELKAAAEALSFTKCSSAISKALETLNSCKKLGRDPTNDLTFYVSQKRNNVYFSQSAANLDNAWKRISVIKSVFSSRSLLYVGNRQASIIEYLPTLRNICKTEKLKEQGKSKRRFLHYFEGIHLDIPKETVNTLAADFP
How it was run: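 ELG1-luciferase HEK293T reporter; 5-fluorouridine + compound/DMSO, 16 hr, 37 °C, 5% CO2; ONE-Glo 30 min RT; luminescence read, qHTS format.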

[5] = Nrf2 qHTS screen for inhibitors: Validation (AID 493153; active = well fitted inhibition curve with a large enough effect in the main read-out, with a control signal flat, not every such curve was filed as active; inconclusive = small, poorly fitted or top-dose-only effect, or effect the other way, or a change in a side signal; inactive = no such curve, though single readings can be large or run the other way)
How it was run: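 Concentration-response test in A549 ARE_Fluc reporter cells (5% FBS OPTI-MEM), compound exposure 18-24 h at 37°C, 5% CO2. Cell viability measured first by CellTiter-Fluor fluorescence; ARE-driven luciferase luminescence then measured as Nrf2 activity.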

[6] = molecular target: Ubiquitin carboxyl-terminal hydrolase 1 (Homo sapiens) (UniProt O94782); experiment: Inhibitors of USP1/UAF1: Pilot qHTS (AID 504865);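 also: rhodamine fluorescence freed from ubiquitin-rhodamine substrate followed over time; nearly all actives have a fitted effect of over 35% in size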
Sequence of UniProt O94782 (O94782 whole entry, looked up): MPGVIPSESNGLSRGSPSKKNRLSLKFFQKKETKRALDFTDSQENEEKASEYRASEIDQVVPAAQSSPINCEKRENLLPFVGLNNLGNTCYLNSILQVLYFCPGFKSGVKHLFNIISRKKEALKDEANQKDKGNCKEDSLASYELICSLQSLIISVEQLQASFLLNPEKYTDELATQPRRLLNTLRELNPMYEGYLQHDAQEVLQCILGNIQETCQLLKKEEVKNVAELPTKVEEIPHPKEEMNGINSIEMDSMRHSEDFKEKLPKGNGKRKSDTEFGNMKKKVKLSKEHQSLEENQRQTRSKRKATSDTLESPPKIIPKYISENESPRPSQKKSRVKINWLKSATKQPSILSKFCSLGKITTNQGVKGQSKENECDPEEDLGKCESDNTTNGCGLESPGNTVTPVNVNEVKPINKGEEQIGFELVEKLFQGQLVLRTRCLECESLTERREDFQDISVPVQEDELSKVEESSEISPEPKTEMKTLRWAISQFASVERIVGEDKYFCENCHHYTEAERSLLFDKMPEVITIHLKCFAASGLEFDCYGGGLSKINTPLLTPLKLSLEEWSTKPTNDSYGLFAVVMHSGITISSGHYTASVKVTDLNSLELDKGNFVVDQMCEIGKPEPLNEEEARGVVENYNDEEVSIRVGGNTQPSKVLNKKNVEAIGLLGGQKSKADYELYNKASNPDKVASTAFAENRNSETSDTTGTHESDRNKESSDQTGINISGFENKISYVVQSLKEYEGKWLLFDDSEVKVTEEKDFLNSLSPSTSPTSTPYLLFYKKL
How it was run: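 In 50mM HEPES pH 7.8 containing 0.5mM EDTA, 1mM TCEP, 0.1 mg/ml BSA and 0.01% Tween-20, 1nM USP1/UAF1 is exposed to compound for 15 min, then Ub-Rho (150nM final) is added and fluorescence is read over time.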

[7] = qHTS for Inhibitors of ATXN expression: Validation (AID 588378); also: nearly all actives have a fitted effect of over 75% in size
How it was run: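 Compounds were pinned onto attached HEK293 cells carrying an ATXN2-firefly luciferase construct and incubated 24 hrs at 37 degrees C. Each well then received a fluorescent viability reagent followed by luciferase substrate for end-point luminescence.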

[8] = molecular target: Galactokinase (Homo sapiens) (UniProt P51570); experiment: qHTS Validation Assay for Inhibitors of Human Galactokinase (GALK) (AID 493189)
Sequence of UniProt P51570 (P51570 whole entry, looked up): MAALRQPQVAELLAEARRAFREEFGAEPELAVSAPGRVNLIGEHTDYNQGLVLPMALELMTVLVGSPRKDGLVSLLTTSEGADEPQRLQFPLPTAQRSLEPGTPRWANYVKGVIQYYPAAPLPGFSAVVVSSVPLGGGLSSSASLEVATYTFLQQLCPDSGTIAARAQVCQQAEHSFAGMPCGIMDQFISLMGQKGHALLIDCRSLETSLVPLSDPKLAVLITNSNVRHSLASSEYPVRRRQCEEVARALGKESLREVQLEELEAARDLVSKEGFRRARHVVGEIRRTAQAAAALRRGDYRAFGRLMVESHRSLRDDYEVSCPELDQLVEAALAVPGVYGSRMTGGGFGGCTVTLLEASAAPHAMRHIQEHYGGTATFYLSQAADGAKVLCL
How it was run: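 5 nM GALK / 100 uM galactose / 35 uM ATP, 20 mM HEPES pH8.0, 5 mM MgCl2, 60 mM NaCl, 1 mM DTT, 0.01% BSA (final). RT 1 h; Kinase-Glo Plus luminescence.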

[9] = molecular target: Peptidyl-prolyl cis-trans isomerase NIMA-interacting 1 (Homo sapiens) (UniProt Q13526); experiment: qHTS Validation Assay to Find Inhibitors of Pin1 (AID 504536; active = well fitted inhibition curve with a large enough effect in the polarisation, with a control signal flat, not every such curve was filed as active; inconclusive = small, poorly fitted or top-dose-only effect, or effect the other way; the % refers to the polarisation)
Sequence of UniProt Q13526 (Q13526 whole entry, looked up): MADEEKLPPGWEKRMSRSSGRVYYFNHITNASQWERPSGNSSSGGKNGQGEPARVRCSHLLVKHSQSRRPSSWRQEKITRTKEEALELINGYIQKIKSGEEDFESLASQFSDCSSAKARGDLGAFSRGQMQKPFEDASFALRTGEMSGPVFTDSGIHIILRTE
How it was run: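 Fluorescence polarization competition: compounds (titration) displace HiFluor-488-labeled Pin1-1b peptide from Pin1 (0.3 uM final) in pH 7.5 HEPES buffer with DTT, 10 min at room temperature; %Activity normalized to no-enzyme wells, curves fitted.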

[10] = molecular target: D(1A) dopamine receptor (Homo sapiens) (UniProt P21728); experiment: HTS Assay for Allosteric Agonists of the Human D1 Dopamine Receptor: Primary Screen for Potentiators (AID 488982)
Sequence of UniProt P21728 (P21728 whole entry, looked up): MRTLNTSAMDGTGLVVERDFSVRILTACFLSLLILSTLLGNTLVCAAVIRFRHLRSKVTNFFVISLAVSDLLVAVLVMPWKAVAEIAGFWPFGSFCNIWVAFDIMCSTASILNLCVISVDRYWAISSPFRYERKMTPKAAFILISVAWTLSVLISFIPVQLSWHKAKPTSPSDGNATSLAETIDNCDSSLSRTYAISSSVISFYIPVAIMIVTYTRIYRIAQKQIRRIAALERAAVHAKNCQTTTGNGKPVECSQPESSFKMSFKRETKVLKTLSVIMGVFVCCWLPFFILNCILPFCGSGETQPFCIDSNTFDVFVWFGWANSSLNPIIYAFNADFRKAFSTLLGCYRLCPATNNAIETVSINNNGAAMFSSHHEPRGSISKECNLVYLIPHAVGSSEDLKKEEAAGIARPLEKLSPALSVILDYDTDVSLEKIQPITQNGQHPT
How it was run: (§1)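 Tetracycline-induced HEK293 Trex D1 cells with forced coupling to calcium, loaded with no-wash calcium dye; kinetic fluorescence read 180 s after compound addition for agonism, then a further 180 s after an EC20 dopamine challenge for potentiation.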

[11] = Validation screen for small molecules that induce DNA re-replication in SW480 colon adenocarcinoma cells (AID 504364)
How it was run: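 Read-out: total Hoechst intensity of nuclei by fluorescence scanning imager; hits raise the fraction of nuclei with elevated DNA content. Cells received compound for 48 hr at 37 C before a 40 min stain.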

[12] = molecular target: Phosphoglycerate kinase, glycosomal (Trypanosoma brucei brucei) (UniProt P07378); experiment: qHTS Validation Assay to Find Inhibitors of Phosphoglycerate Kinase (AID 504547)
How it was run: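 Compounds are pinned into the substrate/PGK mixture, and GAPDH (100nM final) is added to start the reaction by producing 1,3-BPG. After 60 minutes at room temperature, Kinase-Glo Plus is added and luminescence is measured 10 minutes later.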

[13] = qHTS for Inhibitors of ATXN expression: Validation of Cytotoxic Assay (AID 588349)
How it was run: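 Cytotoxicity counter-screen: HEK293 cells exposed to compound titrations, 72 hr, 37 degrees C. Read-out is intracellular ATP (CellTiter Glo luminescence) as a viability measure.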

[14] = molecular target: DNA dC->dU-editing enzyme APOBEC-3G (Homo sapiens) (UniProt Q9HC16); experiment: qHTS for inhibitors of Vif-A3G interactions: Validation (AID 588379); conditions: Vif-A3G protein interaction assay
Sequence of UniProt Q9HC16 (Q9HC16 whole entry, looked up): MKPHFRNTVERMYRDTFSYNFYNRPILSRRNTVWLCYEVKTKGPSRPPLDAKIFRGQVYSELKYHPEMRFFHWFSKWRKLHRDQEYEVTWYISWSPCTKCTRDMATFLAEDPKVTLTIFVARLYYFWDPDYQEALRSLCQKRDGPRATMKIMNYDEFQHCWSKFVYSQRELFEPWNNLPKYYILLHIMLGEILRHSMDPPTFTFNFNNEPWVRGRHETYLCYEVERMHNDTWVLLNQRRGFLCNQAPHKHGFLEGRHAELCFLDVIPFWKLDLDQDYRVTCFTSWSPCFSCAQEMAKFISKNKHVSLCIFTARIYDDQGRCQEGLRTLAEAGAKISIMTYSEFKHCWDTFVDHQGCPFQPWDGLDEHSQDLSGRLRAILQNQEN
How it was run: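 Yellow fluorescence (Ex 488, Em 500-530) of Vif-coexpressing HeLa A3G-eYFP cells, scanned by Acumen cytometer, reports blocked A3G degradation. Cells plated at 700/well overnight at 37 deg C before compound addition, then a further overnight compound incubation at 37 deg C.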

[15] = molecular target: Transient receptor potential cation channel subfamily V member 1 (Homo sapiens) (UniProt Q8NER1); experiment: HTS Assay for Compounds that Act as Enhancers of the Vanilloid Receptor 1 (AID 488979)
How it was run: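 TRPV1 cells loaded with Fluo-8 calcium dye; compound added and Ca2+ signal (ex 480/em 520 nm) followed 3 min, then capsaicin at EC20 added and read 2 more min to detect enhancement.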

[16] = molecular target: phosphoglycerate mutase (Leishmania major) (UniProt Q4Q090); experiment: qHTS Validation Assay to Find Inhibitors of Phosphoglycerate Mutase (AID 504548); conditions: Potency: inhibition qHTS
How it was run: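 Inhibition of L. major PGAM was assessed by Kinase-GloPlus luminescence following a 45-minute room-temperature reaction with enzyme at 1.25nM final.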

[17] = molecular target: D(1A) dopamine receptor (Homo sapiens) (UniProt P21728); experiment: HTS Assay for Allosteric Agonists of the Human D1 Dopamine Receptor: Primary Screen for Agonists (AID 488981)
How it was run: as §1
Potency is read from the fitted curve at half-maximal effect; tags tell the direction and shape of the fitted curve or compound fluorescence and quenching.

Compound: COc1ccc2cc([C@H](C)C(=O)O)ccc2c1
- Potency [1]: active: 0.006 µM

Compound: C[N+](C)(C)CC(=O)O
- Potency [1]: inconclusive: 7.52 µM [inhibitor, single point]
- Potency [2]: inconclusive: 0.0651 µM [activator, full curve, poor fit]

Compound: COc1ccc(/C=C/C(=O)Nc2ccccc2C(=O)O)cc1OC
- Potency [1]: inconclusive: 0.006 µM [inhibitor, full curve]
- Potency [3]: inconclusive: 28.2 µM [activator, partial curve]
- Potency [2]: active: 1.64 µM
- Potency [4]: inconclusive: 13 µM [inhibitor, single point]
- Potency [5]: inconclusive: 18.4 µM [inhibitor, single point]
- Potency [6]: inconclusive: 89.1 µM [inhibitor, partial curve, poor fit] and inconclusive: 63.1 µM [inhibitor, partial curve, poor fit]
- Potency [7]: inconclusive: 2.82 µM [inhibitor, partial curve, poor fit]

Compound: Cc1ccc(C(=O)Nc2ccc(S(=O)(=O)O)c3cc(S(=O)(=O)O)cc(S(=O)(=O)O)c23)cc1NC(=O)c1cccc(NC(=O)Nc2cccc(C(=O)Nc3cc(C(=O)Nc4ccc(S(=O)(=O)O)c5cc(S(=O)(=O)O)cc(S(=O)(=O)O)c45)ccc3C)c2)c1
- Potency [1]: active: 2 µM
- Potency [3]: active: 7.08 µM
- Potency [8]: active: 17.8 µM
- Potency [9]: active: 0.426 µM
- Potency [6]: active: 14.1 µM and active: 7.94 µM and active: 5.01 µM

Compound: O=C1C(SCCO)=C(SCCO)C(=O)c2ccccc21
- Potency [1]: active: 10 µM
- Potency [10]: inconclusive: 0.461 µM [activator, full curve, poor fit]
- Potency [4]: inconclusive: 29.1 µM [inhibitor, single point]
- Potency [8]: active: 25.1 µM
- Potency [11]: inconclusive: 8.2 µM [activator, partial curve, poor fit]
- Potency [9]: inconclusive: 9.53 µM [falling, partial curve]
- Potency [12]: inconclusive: 37.9 µM [inhibitor, single point]
- Potency [6]: active: 15.8 µM
- Potency [13]: inconclusive: 8.91 µM [cytotoxic, partial curve, poor fit]
- Potency [7]: active: 4.47 µM
- Potency [14]: active: 4.73 µM

Compound: C=CC(N)CCC(=O)O (stereo not drawn)
- Potency [1]: inconclusive: 0.0053 µM [inhibitor, full curve]
- Potency [10]: inconclusive: 0.0037 µM [activator, full curve, poor fit]
- Potency [13]: inactive

Compound: Cc1cc(C)c(/C=C2\C(=O)Nc3ccccc32)[nH]1
- Potency [1]: inconclusive: 17.8 µM [inhibitor, full curve]
- Potency [15]: inconclusive: 17.8 µM [activator, single point]
- activity change, negative = decrease [4]: inconclusive: 34.8% [activator]
- Potency [9]: inconclusive: 26.9 µM [fluorescent, side channel, partial curve]
- Potency [6]: active: 7.52 µM
- Potency [13]: inconclusive: 3.55 µM [rising, single point]

Compound: C[C@H](Cc1ccccc1)Nc1ncnc2c1ncn2[C@@H]1O[C@H](CO)[C@@H](O)[C@H]1O
- Potency [1]: inconclusive: 0.0053 µM [inhibitor, full curve]
- Potency [2]: inconclusive: 5.8 µM [activator, partial curve]
- Potency [4]: inconclusive: 5.17 µM [activator, single point]
- Potency [13]: inactive

Compound: Nc1c(S(=O)(=O)O)cc(Nc2ccc(Nc3nc(Cl)nc(Nc4ccc(S(=O)(=O)O)cc4)n3)c(S(=O)(=O)O)c2)c2c1C(=O)c1ccccc1C2=O
- Potency [1]: active: 1.26 µM
- Potency [15]: inactive
- Potency [4]: inconclusive: 29.1 µM [inhibitor, single point]
- Potency [8]: inconclusive: 31.6 µM [inhibitor, single point]
- Potency [9]: active: 2.39 µM
- Potency [12]: active: 5.36 µM
- Potency [16]: inconclusive: 37.9 µM [inhibitor, single point]
- Potency [6]: active: 6.31 µM
- Potency [7]: inconclusive: 28.2 µM [inhibitor, single point]

Compound: COc1cc(C(O)CO)ccc1OS(=O)(=O)O (stereo not drawn)
- Potency [1]: inactive
- Potency [4]: inactive

Compound: CN1CCc2cccc3c2C1Cc1ccc(O)c(O)c1-3 (stereo not drawn)
- Potency [1]: inconclusive: 16.8 µM [inhibitor, partial curve]
- Potency [17]: inactive
- Potency [4]: inconclusive: 6.51 µM [inhibitor, partial curve, poor fit]
- Potency [11]: inconclusive: 29.1 µM [activator, partial curve, poor fit]

Compound: C[C@H](Cc1ccc(O)c(O)c1)[C@@H](C)Cc1ccc(O)c(O)c1
- Potency [1]: active: 31.6 µM
- Potency [17]: inconclusive: 15.8 µM [activator, single point]
- Potency [10]: inconclusive: 1.84 µM [activator, partial curve]
- Potency [4]: inconclusive: 20.6 µM [inhibitor, partial curve, poor fit]
- Potency [5]: inconclusive: 3.66 µM [inhibitor, partial curve, poor fit]
- Potency [9]: inconclusive: 30.1 µM [falling, partial curve]
- Potency [6]: inconclusive: 89.1 µM [inhibitor, partial curve]
- Potency [13]: inconclusive: 35.5 µM [cytotoxic, single point]
- Potency [7]: active: 22.4 µM
